Measurements as given in PubChem BioAssay AID1347073 (National Center for Advancing Translational Sciences (NCATS), 2019).
In all, about 45,000 compounds went through this assay and about 200 (0.44%) were called active. Not shown: some 7% with an inconclusive outcome. The call rests on the fitted dose curve; in most records, active means well fitted activation curve with a large enough effect; inconclusive means small, poorly fitted or top-dose-only effect; inactive means no such curve, though single readings can be large or run the other way. The list shows a part of the results.

Assay: qHTS of TDP-43 Inhibitors: NCGC Sytravon Library Screen; further: 0% is about no effect; nearly all actives have a fitted effect of over 55% in size
Settings: yeast TDP-43 toxicity rescue, BacTiter-Glo growth, 24 h; series mostly up to 46.1 µM; growth rescue (activation): at the top concentration
Procedure, shortened: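 TDP-43-expressing yeast, pregrown in raffinose, seeded at OD600 0.02 in galactose medium with compound for 24 hr at 30 deg C. Growth read by BacTiter-Glo luminescence, so rescue of toxicity appears as activation.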

Row | SMILES | growth rescue (activation)
1 | CC(C)(C)c1ccc(OCCCNC2CCCC2)cc1 | inactive: -10.8%
2 | CCC1CCCCN1CCCNC(=O)c1ccc(CS(=O)(=O)Cc2ccccc2F)o1 (stereo not given) | inactive: -23.4%
3 | Cc1occc1C(=O)N/N=C/c1c(O)ccc2ccccc12 | inactive: 9.09%
4 | CCOc1ncccc1C(=O)NCCc1ccc(OC)cc1 | inactive: 27.8%
5 | O=C(O)c1cc(-c2ccc(N3CCOCC3)cc2)nn1-c1ccc(F)cc1F | inactive: -7.16%
6 | C/C(=N\NC(=O)c1cccs1)c1ccc2c(c1)OCO2 | inactive: -2.3%
7 | O=C(Nc1ccc([N+](=O)[O-])cc1)c1cccc(S(=O)(=O)Nc2ccccn2)c1 | inactive: -4.99%
8 | Oc1ccccc1-c1nc(NCc2ccccc2)c2ccccc2n1 | inactive: -3.88%
9 | CCOC(=O)c1n[nH]c(=O)c2ccccc12 | inactive: 1.4%
10 | Cc1cccc(NCc2ccccc2OCc2ccccc2F)c1 | inactive: 16.3%
11 | COc1cc(/C=C2\SC(=S)N(NC(=O)c3ccccc3OC)C2=O)ccc1O | inactive: -4.19%
12 | O=C(C1COc2ccccc2O1)N1CCN(c2ccccc2Cl)CC1 (stereo not given) | inactive: 0.636%
13 | CC(=O)Nc1ccc(C(=O)NCCc2ccccc2)cc1 | inactive: 1.01%
14 | CCn1cc(C2=NC(CC(C)C)CO2)c2ccccc21 (stereo not given) | inactive: -13.9%
15 | Cc1ccc(S(=O)(=O)N(C)C)cc1NC(=O)COc1ccc(-c2nnco2)cc1 | inactive: 1.44%
16 | C/C(CC(=O)Nc1ccc(C)c(Cl)c1)=N\NC(=O)c1ccco1 | inactive: 20.4%
17 | OCCN1CCN(c2ncnc3c2ncn3[C@H]2CN(Cc3ccc4c(c3)OCO4)C[C@@H](CO)O2)CC1 | inactive: 4.99%
18 | O=C(Nc1nccs1)c1ccc(Cl)c(S(=O)(=O)N2CCOCC2)c1 | inactive: 28.5%
19 | CC(=O)c1cccc(NC(=O)N2CCCC2C(=O)Nc2ccccc2C)c1 (stereo not given) | inactive: 16.8%
20 | O=C(COC(=O)c1ccco1)NC1CCCC1 | inactive: 11.7%
21 | Nc1c(C(=O)c2ccc(Cl)cc2)sc2nc3c(cc12)CCC3 | inactive: 17.2%
22 | CCOc1ccccc1NC(=O)C1=C(C)NC(=O)NC1c1cccs1 (stereo not given) | inactive: 8.99%

Row | SMILES | growth rescue (activation)
23 | Cc1ccc(NS(=O)(=O)c2ccc(Cl)s2)cc1S(=O)(=O)N(C)C | inactive: -1.59%
24 | Cc1ccccc1OCC(=O)Nc1ccc(S(=O)(=O)Nc2onc(C)c2C)cc1 | inactive: -14.2%
25 | Cc1ccc(NC(=O)c2ccccn2)c(Br)c1 | inactive: 20.8%
26 | CC(C)Oc1cccc(C(=O)N2CCCC2)c1 | inactive: 5.42%
27 | COc1cc(C(=O)NNC(=O)CCOc2ccccc2C)cc(OC)c1OC | inactive: 4.58%
28 | O=S(=O)(/C=C/c1ccccc1)N1CCN(c2nc(-c3ccccc3)nc3ccccc23)CC1 | inactive: 15.3%
29 | NC(=O)Nc1ccc(C(=O)OCC(=O)NC2CCCCC2)cc1 | inactive: 8.88%
30 | O=C(O)c1nccnc1C(=O)Nc1ccc(Cl)cn1 | inactive: -5.69%
31 | Cc1ccc(C(O)c2nc3ccccc3n2C(C)C)cc1 (stereo not given) | inactive: 17.6%
32 | COc1ccc(CNc2ncnc3sccc23)cc1OC | inactive: 25.6%
33 | O=C(O)C1CCCCC1C(=O)NCc1ccc(Cl)c(Cl)c1 (stereo not given) | inactive: 6.83%
34 | CSc1nc2nc(-c3cccs3)cc(C(F)(F)F)c2c(=O)[nH]1 | inactive: 2.88%
35 | CC(=O)Nc1ccc(C(=O)N2CCCCC2c2cc(C(=O)N3CCOCC3)no2)cc1 (stereo not given) | inactive: -8.3%
36 | Cc1ccc(C)c2c1cc(C)c1nnc(SCC(=O)Nc3nc4c(s3)CCCC4)n12 | inactive: 12.6%
37 | COC(=O)N/N=C\c1ccc(OC(=O)c2ccco2)cc1 | inactive: -17.6%
38 | Cc1ccc(NC(=O)c2ccc(Br)o2)cc1S(=O)(=O)N(C)C | inactive: -4.75%
39 | COc1ccc(C(=O)Nc2ccccc2)cc1S(=O)(=O)NCc1ccco1 | inactive: -8.51%
40 | CC(=O)c1ccc(Oc2ccc(C(=O)c3ccc(C)c(C)c3)cc2[N+](=O)[O-])cc1 | inactive: 11.6%
41 | S=C(NCCCN1CCOCC1)Nc1ccc(Cl)cc1Cl | inactive: 9.54%
42 | O=C(C[n+]1ccc(CCSc2ccc(F)cc2)cc1)c1ccccc1 | inactive: 12.4%
43 | Cc1ccc(S(=O)(=O)N(C)C)cc1NC(=O)C(C)OC(=O)c1cc[n+]([O-])cc1 (stereo not given) | inactive: 9.3%
44 | CCOc1cccc(/C=N/NC(=O)c2ccc3c(c2)OCCO3)c1O | inactive: -11.8%

Row | SMILES | growth rescue (activation)
45 | COc1ccc(N(C(=O)c2snc(C(N)=O)c2N)C(C(=O)NCC2CCCO2)c2ccc(C)o2)cc1OC (stereo not given) | inactive: 11.7%
46 | Cc1ccc(O)c(NC(=O)c2cc(-c3ccc(F)cc3)on2)c1 | inactive: -15.5%
47 | COC(=O)c1ccc(Cl)cc1NC(=O)NC(C)c1c(-n2cccc2)sc(C)c1C (stereo not given) | inactive: 14.5%
48 | Cc1cc(/C=C2\SC(=O)NC2=O)c(C)n1-c1ccc(N2CCOCC2)cc1 | inactive: 9.89%
49 | CCCCCc1ccc(OCCCC[n+]2cccc(C)c2)c(CCCCC)c1 | inactive: -87%
50 | Cc1ccnc2nc(C(=O)OCC(=O)c3ccccc3)nn12 | inactive: 1.06%
51 | O=C(O)C1Sc2[nH]c(=O)sc2C2c3cc(Br)ccc3OC(=O)C12 (stereo not given) | inactive: -13.8%
52 | CCOC(=O)C(NC(=O)c1ccccc1)=C1C=C(C)OC(C)=C1 | inactive: -1.05%
53 | O=C(COC(=O)/C=C/c1cccc(F)c1)NC1CC1 | inactive: 22.4%
54 | CC(CCc1ccccc1)NC(=O)C(=O)Nc1ccccc1 (stereo not given) | inactive: -6.89%
55 | COc1cc(OC)cc(C(=O)Nc2ccc(S(=O)(=O)Nc3ccccn3)cc2)c1 | inactive: 18.3%
56 | Cc1cc(F)ccc1-c1cc(C(=O)NCc2cc(C(F)(F)F)cc(C(F)(F)F)c2)[nH]n1 | inactive: -7.09%
57 | Cc1nc2ccccn2c1C(=O)NN=C1CCCC1 | inactive: -2.62%
58 | O=C(NC1CCCCC1)c1cc2cc(Br)ccc2o1 | inactive: 17.1%
59 | O=C(CSc1nnc(-c2ccco2)o1)N1CCCCC1 | inactive: -17.6%
60 | CCCC(C(=O)NCc1ccco1)N(Cc1ccco1)C(=O)CNS(=O)(=O)c1ccccc1 (stereo not given) | inactive: 14.8%
61 | Cc1cc2c(cc1S(=O)(=O)N(C)c1ccccc1)NC(=O)CO2 | inactive: 1.54%
62 | O=C(O)CCC(=O)N1N=C(c2ccc(Br)cc2)CC1c1cccc(Br)c1 (stereo not given) | inactive: 1.02%
63 | CCN(CC)C(=O)c1ccc(NS(=O)(=O)c2ccccc2)cc1 | inactive: -2.75%
64 | CC(C)Nc1nnc(Sc2ccc(Cl)cc2[N+](=O)[O-])s1 | inactive: 12.9%
65 | CC(C)N(Cc1cn[nH]c1-c1ccc(-c2ccccc2)cc1)Cc1nccn1C | inactive: 11.3%
66 | CCCCCc1nnc(NC(=O)Cn2cnc3ccccc3c2=O)s1 | inactive: 1.03%

Row | SMILES | growth rescue (activation)
67 | COC(=O)N=Nc1c(O)[nH]c2ccc(Br)cc12 | inactive: -6.19%
68 | Cc1ccc(C(=O)N2CCN(c3ccc(NC(=S)NC(=O)c4cccs4)cc3)CC2)cc1 | inactive: -24%
69 | CN(C)CCNc1nc(Oc2ccccc2)c2sccc2n1 | inactive: 7.99%
70 | O=C(COC(=O)c1ccc(Br)o1)NCc1ccc(Cl)cc1 | inactive: 15.6%
71 | Cc1ccc(NC(=O)C2(C)CCN2C(=O)C2CCCCC2)cc1C (stereo not given) | inactive: 24.7%
72 | COc1ccc(/C=C/C(=O)Nc2cc(C)on2)cc1 | inactive: 8.46%
73 | CCOc1ccc(N(CC(=O)NCc2ccc3c(c2)OCO3)C(=O)c2csnn2)cc1 | inactive: 8.75%
74 | O=C(NCCc1ccc(Cl)cc1)C(=O)c1c[nH]c2ccccc12 | inactive: 17.4%
75 | CN1CCN(C(=O)CN(C)S(=O)(=O)c2ccc(F)cc2)CC1 | inactive: 9.18%
76 | CC1=NN(c2ccccc2)C(=O)C1C=Nc1ccccc1O (stereo not given) | inactive: -0.213%
77 | Cc1ccccc1NC(=O)C1Cc2ccccc2CN1C(=O)c1ccco1 (stereo not given) | inactive: 12.1%
78 | CSc1ccccc1NC(=O)NCCCl | inactive: -12.3%
79 | CCCNC(=O)C1(C)CCN(Cc2ccc(-c3ccccn3)cc2)C1 (stereo not given) | inactive: 2.53%
80 | O=C(COC(=O)CNC(=O)c1ccccc1)Nc1ccc(Cl)cn1 | inactive: -0.187%
81 | Cc1ccc(/C=N/NC(=O)c2ccncc2)s1 | inactive: 11.5%
82 | O=[N+]([O-])c1ccc(/C([O-])=C(/C(=S)Nc2ccccc2F)[n+]2ccccc2)cc1 | inactive: 14.8%
83 | O=C(NCCO)c1ccc2nc(-c3ccco3)c(-c3ccco3)nc2c1 | inactive: 0.776%
84 | CC(=O)Nc1ccc(Oc2nc(-c3cccnc3)nc3sc4c(c23)CCCC4)cc1 | inactive: 25.9%
85 | COc1ccc(/C=C/C(=O)Nc2ccncc2)cc1OC | inactive: 5.39%
86 | COCCn1c(C)cc(C(=O)COC(=O)c2ccc(S(=O)(=O)N(C)C)cc2)c1C | inactive: 3.42%
87 | COc1ccc(C(CNC(=O)c2cccc3cccnc23)N(C)C)cc1 (stereo not given) | inactive: 4.04%
88 | CC(C)S(=O)(=O)NC(=O)C1(C)CCN1C(=O)Cc1ccccc1Cl (stereo not given) | inactive: 10.2%

Row | SMILES | growth rescue (activation)
89 | CCOc1cc2[nH]c(=S)n(C3CCN(Cc4ccccc4)CC3)c(=O)c2cc1OCC | inactive: 5.29%
90 | Cc1ccc(S(=O)(=O)NCCC(=O)Nc2ccc(C)c(Cl)c2)cc1C | inactive: 20%
91 | Cc1cc(C(=O)COc2ccc(C#N)cc2)c(C)n1-c1ccc2c(c1)OCO2 | inactive: -5.4%
92 | CCc1cccc(NC(=S)Nc2ccc(CN3CCOCC3)cc2)c1 | inactive: 17.1%
93 | CN(C)CCOC(=O)c1sc2ccccc2c1Cl | inactive: -6.5%
94 | Cc1cc(-c2nn(-c3ccccc3F)cc2CN2CCCC(CO)C2)c(C)s1 (stereo not given) | inactive: 11.5%
95 | COc1ccc(/C=N/NC(=O)Cn2cnc3c2c(=O)n(C)c(=O)n3C)cc1 | inactive: -1.81%
96 | CCn1c2ccccc2c2cc(NC(=O)COC(=O)c3cccc(S(=O)(=O)NC)c3)ccc21 | inactive: 12%
97 | COc1ccc(-c2ncn(CCC#N)c2[N+](=O)[O-])cc1 | inactive: 8.98%
98 | Cc1cc(C)c(Cn2c(=O)n(CCCC(=O)NCc3ccc4c(c3)OCO4)c(=O)c3sccc32)c(C)c1 | inactive: 7.66%
99 | Cc1ccc(Nc2ncnc3sccc23)c(C)c1 | inactive: 26.9%
100 | C/C(=N/NC(=O)CNC(=O)c1cccnc1)c1ccc([N+](=O)[O-])cc1 | inactive: -1.9%
101 | O=C(Cn1cnc([N+](=O)[O-])c1)Nc1ccccc1C(F)(F)F | inactive: 11.6%
102 | CN1C(=S)N(c2cccnc2)C(=O)/C1=C\c1ccc(N(C)C)cc1 | inactive: -8.53%
103 | Cc1ccc(N(CC(=O)NC2CCCC2)C(=O)CNC(=O)c2cccs2)cc1C | inactive: -16.7%
104 | CCOc1ccc(NC(=O)C2CCCN(S(C)(=O)=O)C2)cc1 (stereo not given) | inactive: -4%
105 | Cc1cccnc1NC1CCCCC1 | inactive: -22.7%
106 | CCN(CC)S(=O)(=O)c1ccc(N2CCOCC2)c(NC(=O)c2ccco2)c1 | inactive: 12.2%
107 | CC(=O)c1c(C)[nH]c(C(=O)OCC(=O)Nc2cccnc2Cl)c1C | inactive: 0.754%
108 | CCOc1cc(C(=O)NC(=S)Nc2ccc(Cl)c(C(=O)O)c2)cc(OCC)c1OCC | inactive: -63.4%
109 | Oc1ccccc1CN(Cc1ccco1)CC(O)COCc1ccc(Cl)cc1 (stereo not given) | inactive: 3.43%
110 | CCOC(=O)C1CCN(c2ncnc3c2[nH]c2cccc(OC)c23)CC1 | inactive: -2.75%
